# Results from the BET-seq Pho4 binding data (Le et al. 2018).
# This is one part of the list. These are noisy estimates, calculated here from bound and input reads.
# Target: T1, Pho4 (S. cerevisiae) (UniProt P07270)
# T1 sequence: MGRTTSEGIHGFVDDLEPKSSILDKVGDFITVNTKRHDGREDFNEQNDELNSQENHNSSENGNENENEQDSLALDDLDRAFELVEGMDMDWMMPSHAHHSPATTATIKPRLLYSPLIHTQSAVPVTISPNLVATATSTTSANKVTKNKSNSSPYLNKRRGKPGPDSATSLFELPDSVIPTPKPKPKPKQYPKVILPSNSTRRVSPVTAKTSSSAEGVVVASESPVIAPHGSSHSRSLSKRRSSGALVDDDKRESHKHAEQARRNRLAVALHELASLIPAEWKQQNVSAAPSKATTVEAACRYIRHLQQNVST
# Assay: relative binding free energy (BET-seq); higher = weaker binding
# Settings: reference: library average
row,Sequence,relative binding free energy
1,TGTGGCACGTGCTCGT,-0.25 kcal/mol
2,AGTTTCACGTGATTGT,0.38 kcal/mol
3,AGTTACACGTGATAGA,0.29 kcal/mol
4,GTTGGCACGTGTGTCG,0.01 kcal/mol
5,TAGAACACGTGTGCTT,0.18 kcal/mol
6,GGTGTCACGTGTATAA,0.24 kcal/mol
7,ATGTCCACGTGAGTTG,0.15 kcal/mol
8,TAATACACGTGCGGGG,0.04 kcal/mol
9,ACATACACGTGTTAGT,0.12 kcal/mol
10,AAGGACACGTGTTGAG,0.02 kcal/mol
11,AGGTCCACGTGGAGAT,0.13 kcal/mol
12,TGGCGCACGTGTAGGT,0.09 kcal/mol
13,GACAGCACGTGGTAGT,-0.06 kcal/mol
14,CGTTACACGTGTTAGG,0.15 kcal/mol
15,AAATGCACGTGATGGT,0.19 kcal/mol
16,CGGTGCACGTGATCGT,0.02 kcal/mol
17,GGTCTCACGTGGGGCT,0.15 kcal/mol
18,GTCCACACGTGGGTGT,-0.02 kcal/mol
19,AGGGTCACGTGAACGT,0.19 kcal/mol
20,AGGTGCACGTGGGGTC,-0.22 kcal/mol
21,TAGGGCACGTGATTGG,0.08 kcal/mol
22,GGAAGCACGTGTTAAT,0.11 kcal/mol
23,GTCAGCACGTGTAGTG,-0.14 kcal/mol
24,GTGGTCACGTGCAAGG,0.14 kcal/mol
25,GGATTCACGTGAGATA,0.47 kcal/mol
26,GTGTTCACGTGGGTCC,0.28 kcal/mol

row,Sequence,relative binding free energy
1,TATGTCACGTGACGCG,0.12 kcal/mol
2,TGTATCACGTGTGGTT,0.17 kcal/mol
3,GGTGTCACGTGAGATA,0.31 kcal/mol
4,TATTACACGTGGGCGG,0.08 kcal/mol
5,GGAGCCACGTGGCGGG,-0.33 kcal/mol
6,TAAATCACGTGATGGC,0.31 kcal/mol
7,GAGGACACGTGCGGGT,0.03 kcal/mol
8,GATGCCACGTGAAGGG,0.19 kcal/mol
9,TGTTGCACGTGACCGT,-0.03 kcal/mol
10,AACATCACGTGGGAGG,0.21 kcal/mol
11,TGGAGCACGTGCGTTA,-0.15 kcal/mol
12,CGTATCACGTGTATAG,0.11 kcal/mol
13,GTGGTCACGTGAAGCG,0.36 kcal/mol
14,AGGATCACGTGCAGGT,0.16 kcal/mol
15,GTGGCCACGTGATGAG,0.08 kcal/mol
16,AGTCTCACGTGAAGTG,0.26 kcal/mol
17,ATTGCCACGTGTTGGG,-0.16 kcal/mol
18,GGGGCCACGTGTAGAA,0.22 kcal/mol
19,TCAGACACGTGAAGGG,0.25 kcal/mol
20,TTAAGCACGTGTATCG,-0.04 kcal/mol
21,ATGGCCACGTGAGGGG,0.08 kcal/mol
22,TGGATCACGTGTGAGT,0.19 kcal/mol
23,TATATCACGTGGCAGG,0.01 kcal/mol
24,CCGGTCACGTGTTTTT,0.18 kcal/mol
25,TTCGACACGTGGGTTT,0.01 kcal/mol
26,GCATGCACGTGAGAGG,0.28 kcal/mol

row,Sequence,relative binding free energy
1,TAGTTCACGTGCGTTT,0.31 kcal/mol
2,TGGACCACGTGGCTGG,-0.14 kcal/mol
3,TGTAGCACGTGTCTTT,0.03 kcal/mol
4,TGGTCCACGTGGGCAT,-0.12 kcal/mol
5,GGTTTCACGTGCTATG,0.29 kcal/mol
6,CCGGGCACGTGTGGGG,-0.02 kcal/mol
7,TAAGGCACGTGGTCTG,-0.31 kcal/mol
8,CTGGGCACGTGGCGGA,-0.14 kcal/mol
9,TGGAGCACGTGAGGTC,0.22 kcal/mol
10,ATCTGCACGTGTAATT,0.18 kcal/mol
11,TTGATCACGTGTTGGA,0.12 kcal/mol
12,CGGTTCACGTGTGAGT,0.3 kcal/mol
13,GGAGGCACGTGTGGAG,0.01 kcal/mol
14,ATACGCACGTGGGTGA,-0.35 kcal/mol
15,AAGGTCACGTGATAAT,0.23 kcal/mol
16,TAGTACACGTGAGAAG,0.46 kcal/mol
17,GGAGTCACGTGATAAG,0.34 kcal/mol
18,TTATCCACGTGGATTT,0.1 kcal/mol
19,GGGGCCACGTGCTAGG,-0.2 kcal/mol
20,AGCGGCACGTGGAAGG,0.08 kcal/mol
21,GTGACCACGTGGATGT,0.1 kcal/mol
22,CTTCTCACGTGGATGT,0.22 kcal/mol
23,ATGGACACGTGGTTTA,-0.07 kcal/mol
24,GCTGGCACGTGGCGTG,-0.15 kcal/mol
25,TTGTGCACGTGTGGGC,-0.04 kcal/mol
26,ATTTGCACGTGGGATT,-0.07 kcal/mol

row,Sequence,relative binding free energy
1,TAGATCACGTGGAAGG,0.26 kcal/mol
2,GTATTCACGTGGCGCG,0.33 kcal/mol
3,AGGCGCACGTGAGAGG,0.18 kcal/mol
4,CGGTGCACGTGAAGTG,0.37 kcal/mol
5,ATTCTCACGTGGAGAT,0.26 kcal/mol
6,ACAGGCACGTGTGAGG,0.11 kcal/mol
7,GGATACACGTGTACTG,0.32 kcal/mol
8,CCATGCACGTGGGGTT,-0.18 kcal/mol
9,GTTTGCACGTGATGTG,0.23 kcal/mol
10,TAAATCACGTGGGAAT,0.13 kcal/mol
11,TAACACACGTGGGGTT,-0.07 kcal/mol
12,GTACGCACGTGGGAGT,-0.21 kcal/mol
13,TTTTACACGTGGTAGG,0.02 kcal/mol
14,GATGTCACGTGTAGTT,0.21 kcal/mol
15,TATAGCACGTGTTACG,-0.08 kcal/mol
16,GTATACACGTGTTTGG,0.12 kcal/mol
17,AGGTACACGTGGGTGT,-0.02 kcal/mol
18,TAGTACACGTGGTAGA,-0.03 kcal/mol
19,GGCGCCACGTGGTGGA,-0.17 kcal/mol
20,AGATACACGTGGTTGT,0.04 kcal/mol
21,TTTGGCACGTGGGCTG,-0.14 kcal/mol
22,CTTGTCACGTGTGTGC,0.1 kcal/mol
23,TCTGTCACGTGTGGAT,0.26 kcal/mol
24,AAAGGCACGTGGGGTG,-0.25 kcal/mol
25,GGTTACACGTGGGGAA,0.07 kcal/mol
26,AATCGCACGTGCTGGG,-0.05 kcal/mol

row,Sequence,relative binding free energy
1,TATATCACGTGGTATA,-0.07 kcal/mol
2,GTGTGCACGTGGCTGA,-0.11 kcal/mol
3,TCATGCACGTGTAATT,0.14 kcal/mol
4,GTGGACACGTGGGCCG,-0.2 kcal/mol
5,TTCGTCACGTGATGTA,0.18 kcal/mol
6,AAGGGCACGTGGTTCT,-0.08 kcal/mol
7,CGGCACACGTGTGGTA,0.08 kcal/mol
8,AGTTTCACGTGAAGAT,0.21 kcal/mol
9,TGTAACACGTGTGGGG,-0.01 kcal/mol
10,GTGGCCACGTGCGGGT,-0.15 kcal/mol
11,TCATTCACGTGTGTTC,0.27 kcal/mol
12,GAGGTCACGTGCGTTT,0.23 kcal/mol
13,GTAAGCACGTGGAGGG,-0.04 kcal/mol
14,TCAGGCACGTGTGCTG,-0.01 kcal/mol
15,GCTGACACGTGTTGTG,-0.11 kcal/mol
16,GTAAACACGTGGGTAG,-0.03 kcal/mol
17,ATAGTCACGTGAGATT,0.31 kcal/mol
18,ATGACCACGTGGGGAT,-0.12 kcal/mol
19,TGTGGCACGTGTGCTC,-0.12 kcal/mol
20,CGTGTCACGTGTAGCG,0.01 kcal/mol
21,AATGGCACGTGCTTGT,-0.17 kcal/mol
22,CTAGGCACGTGTGTGG,-0.14 kcal/mol
23,AGGGTCACGTGTATAG,0.13 kcal/mol
24,ATGGGCACGTGGTGCA,-0.15 kcal/mol
25,ATGATCACGTGAGCTT,0.39 kcal/mol
26,GGTCTCACGTGAGGTT,0.34 kcal/mol

row,Sequence,relative binding free energy
1,TGCGTCACGTGATATG,0.16 kcal/mol
2,GTCTTCACGTGTGTCG,0.37 kcal/mol
3,AAATGCACGTGCAGGG,-0.11 kcal/mol
4,CGTAACACGTGTTTTT,-0.02 kcal/mol
5,TGGTTCACGTGGACTA,0.27 kcal/mol
6,GTTTACACGTGCGTGT,0.06 kcal/mol
7,CGGATCACGTGTATGG,0.01 kcal/mol
8,AGGGTCACGTGATATG,0.11 kcal/mol
9,TTGAGCACGTGGTAGG,-0.1 kcal/mol
10,ATTGACACGTGGAAGG,0.06 kcal/mol
11,CGGGTCACGTGCGTCG,0.09 kcal/mol
12,TTCAGCACGTGGATGT,0.03 kcal/mol
13,TGTAACACGTGCGGTA,0.07 kcal/mol
14,TGCGACACGTGCGGTT,0.18 kcal/mol
15,ATTATCACGTGGTGAG,0.14 kcal/mol
16,TGCCGCACGTGCTGGT,-0.04 kcal/mol
17,GGACTCACGTGGTCGG,0.32 kcal/mol
18,GGTTGCACGTGCGTCA,0.01 kcal/mol
19,TTCGGCACGTGGTGTA,-0.17 kcal/mol
20,GATAGCACGTGGTATT,-0.21 kcal/mol
21,TGTTACACGTGGTTAT,0.12 kcal/mol
22,AACGTCACGTGGGGCG,-0.01 kcal/mol
23,AGTAGCACGTGAAATA,0.3 kcal/mol
24,TTTTTCACGTGTGAGG,0.32 kcal/mol
25,GGATGCACGTGGGAAT,-0.09 kcal/mol
26,AGTGCCACGTGGGCTT,-0.2 kcal/mol

row,Sequence,relative binding free energy
1,GGGATCACGTGGTTTA,0.31 kcal/mol
2,TTGATCACGTGGGAAT,0.14 kcal/mol
3,TGAGTCACGTGTAGTT,0.14 kcal/mol
4,CGGGGCACGTGCAGGT,-0.13 kcal/mol
5,GTATTCACGTGGGTAT,0.3 kcal/mol
6,TTATTCACGTGTGTGT,0.23 kcal/mol
7,AGGGACACGTGTAGGG,0.06 kcal/mol
8,AGAATCACGTGAAGTT,0.46 kcal/mol
9,TGGAACACGTGCGGAG,0.13 kcal/mol
10,TGTATCACGTGGAAGT,0.19 kcal/mol
11,GTTGCCACGTGGTCGG,-0.15 kcal/mol
12,ACGTGCACGTGTAGGG,-0.04 kcal/mol
13,TGAAGCACGTGACTGT,0.03 kcal/mol
14,GGGCTCACGTGCGGGT,0.08 kcal/mol
15,TACGACACGTGATGTG,0.07 kcal/mol
16,TATTTCACGTGAAGTT,0.42 kcal/mol
17,GTTGGCACGTGAGGTG,0.07 kcal/mol
18,GATTGCACGTGTGGCT,0.04 kcal/mol
19,GTTCACACGTGCGTGT,0.06 kcal/mol
20,TGAAACACGTGGTATA,-0.05 kcal/mol
21,ACAGTCACGTGTGGTG,0 kcal/mol
22,TGTGACACGTGTTTCG,0.14 kcal/mol
23,ATATGCACGTGGTATG,-0.16 kcal/mol
24,TGGTTCACGTGCGGAT,0.35 kcal/mol
25,GCTGTCACGTGGTGTC,0.1 kcal/mol
26,TGTTACACGTGTTCGG,0.06 kcal/mol

row,Sequence,relative binding free energy
1,ATAGGCACGTGCGTGG,-0.18 kcal/mol
2,TATAGCACGTGGGGTA,-0.27 kcal/mol
3,TGATTCACGTGTGGCC,0.29 kcal/mol
4,TTTATCACGTGGTTAC,-0.01 kcal/mol
5,TTTTGCACGTGAGGGG,0.22 kcal/mol
6,TTTGTCACGTGAAATA,0.31 kcal/mol
7,GGTTGCACGTGATGGA,0.1 kcal/mol
8,TATTTCACGTGATAGG,0.37 kcal/mol
9,AACTGCACGTGTTTGG,0.18 kcal/mol
10,TGTCTCACGTGCTTGT,0.12 kcal/mol
11,CGGGTCACGTGTTTGC,0.04 kcal/mol
12,GATCGCACGTGGTTGA,-0.06 kcal/mol
13,ACTAGCACGTGCGGGG,-0.11 kcal/mol
14,TTGGACACGTGGAGAT,0.06 kcal/mol
15,TGCGACACGTGGGGGT,-0.01 kcal/mol
16,AATGTCACGTGGTGCC,0.22 kcal/mol
17,AGTTACACGTGAGGAA,0.26 kcal/mol
18,ATGTCCACGTGTGTTT,0.01 kcal/mol
19,AGGTACACGTGTAAAG,0.1 kcal/mol
20,GTGGACACGTGAGGTA,0.29 kcal/mol
21,TATAGCACGTGGTGTA,-0.27 kcal/mol
22,GTTAACACGTGATGCG,0.21 kcal/mol
23,GGAGACACGTGATGGA,0.14 kcal/mol
24,TACGTCACGTGAGAGG,0.22 kcal/mol
25,AGTTACACGTGCGTTT,0.03 kcal/mol
26,TAAGTCACGTGCAAGG,0.04 kcal/mol

row,Sequence,relative binding free energy
1,GTGTACACGTGTCTGG,0.03 kcal/mol
2,GCGAGCACGTGTGTTT,0.07 kcal/mol
3,CAGGTCACGTGGTAGT,0.07 kcal/mol
4,GGTTTCACGTGAGAAG,0.44 kcal/mol
5,GTGTTCACGTGGAAAG,0.33 kcal/mol
6,GGCCGCACGTGTGGTG,-0.05 kcal/mol
7,GATCGCACGTGTGGGG,0.06 kcal/mol
8,ATTTTCACGTGTTCGA,0.32 kcal/mol
9,TGTATCACGTGTTGCA,0.02 kcal/mol
10,TTAGTCACGTGTGGAA,0.1 kcal/mol
11,GTTCACACGTGGGTGT,-0.11 kcal/mol
12,GGTTCCACGTGGATGT,0.25 kcal/mol
13,GTGATCACGTGAAGTG,0.12 kcal/mol
14,TGCGCCACGTGTGTGG,0 kcal/mol
15,CGAGGCACGTGTTGAG,-0.06 kcal/mol
16,ATTAGCACGTGTGTGG,-0.11 kcal/mol
17,GGCGCCACGTGGGTGA,-0.11 kcal/mol
18,CTTGGCACGTGTATAT,-0.24 kcal/mol
19,ATAAACACGTGGTGAG,-0.02 kcal/mol
20,TTTTACACGTGTATCG,0.18 kcal/mol
21,GCGCGCACGTGTGGTG,-0.09 kcal/mol
22,TTTTTCACGTGGAGGC,0.34 kcal/mol
